SMILES strings stand for the structures. ± gives the uncertainty stated by the source. The full ranking holds about 9,900 compounds; the median of “viability index relative to DMSO control” is about 1, and the lowest 2% start at about 0.85. Some of the results follow.

The assay has as its system Plasmodium falciparum NF54 stage V gametocytes. Briefly: viability index relative to DMSO control (fraction); higher = less gametocyte killing. As to conditions: 2.5 µM, library set: Broad Institute DOS, incubation time: 72 h. Summed up: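 P. falciparum NF54 stage V gametocytes in serum-free screening medium (0.75% gametocytemia, 1.25% hematocrit, 10 µl) were incubated with compound at 2.5 µM in 1,536-well plates for 72 hr at 37°C under low oxygen. Then 3 µl of 2.5 µM MitoTracker Red CMXRos plus 0.13% saponin was added for one to two hours. One field per well was imaged, 20–70 µm2 red particles were counted, and the viability index was the count divided by the plate mean of DMSO wells.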
Take `COc1ccc(C#Cc2ccc([C@@H]3[C@@H](CO)N4C(=O)CN(C(=O)c5ccc(F)cc5)C[C@@H]34)cc2)cc1`: the viability index was determined as 1.06 ± 0.053.

In the case of `COc1ccc(NC(=O)N(C)C[C@H]2OCCCC[C@H](C)Oc3ccc(NC(=O)c4ccncc4)cc3C(=O)N([C@H](C)CO)C[C@@H]2C)cc1`, the viability index is 1.09 ± 0.013.

In turn, `C[C@@H]1CN([C@@H](C)CO)C(=O)Cc2cc(NS(=O)(=O)c3ccc(Cl)cc3)ccc2O[C@@H]1CN(C)C(=O)Nc1ccc(C(F)(F)F)cc1` returned a viability index of 1.011 ± 0.01.

In turn, `COc1ccc(C#Cc2ccc([C@H]3[C@@H](CO)N4C(=O)CN(C(=O)c5ccc(F)cc5)C[C@H]34)cc2)cc1` returned a viability index of 0.996 ± 0.093.

Regarding `O=C(C[C@H]1CC[C@H]2[C@@H](COC[C@H](O)CN2C(=O)Nc2ccccc2)O1)NCc1ccccc1F`, the viability index was determined as 1.09 ± 0.024.

With `O=C(NCC[C@@H]1CC[C@@H](NS(=O)(=O)Cc2ccccc2)[C@@H](CO)O1)C1CCCCC1`, the viability index stood at 0.968 ± 0.15.

`COc1ccc2c3c([nH]c2c1)[C@H](CO)N(C[C@]31CCN(CC1)C(=O)c1ccc2OCOc2c1)C(C)=O` came in with a viability index of 1.027 ± 0.0033.

Compound `O=C(C[C@H]1CC[C@H]2[C@@H](COC[C@@H](O)CN2C(=O)c2ccc(F)cc2)O1)N1CCCCC1` displayed a viability index of 1.07 ± 0.13.

Compound `N#C[C@H]1[C@@H](c2ccc(/C=C/c3ccccc3)cc2)[C@@H](CO)N1C(=O)C1CCCC1` displayed a viability index of 1.077 ± 0.0071.

Consider `C[C@@H]1CN([C@@H](C)CO)C(=O)CCCn2nncc2CO[C@@H]1CN(C)S(=O)(=O)c1ccc(Oc2ccccc2)nc1`, for which the viability index turned out to be 1.02 ± 0.063.

Turning to `O=C(Nc1ccccc1)[C@@H]1[C@@H](CO)[C@@H]2Cn3c(ccc(C4=CCCCC4)c3=O)[C@@H]2N1Cc1cocn1`, the viability index came to 1.02 ± 0.013.

Compound `Cn1cnc(S(=O)(=O)N2CC[C@@H]3[C@H]2c2cc(C4=CCCCC4)ccc2N[C@@H]3CO)c1` gave a viability index of 1.088 ± 0.0043.

Compound `CCC(=O)N1[C@H](CO)[C@H](c2ccc(-c3cccc(OC)c3)cc2)[C@H]1CNC(C)=O` showed a viability index of 1.01 ± 0.018.

For the compound `COCC(=O)Nc1ccc2c(c1)[C@@H]1C[C@@H](CC(=O)NCc3ccc4c(c3)OCO4)O[C@@H](CO)[C@@H]1O2`, the viability index worked out at 1.01 ± 0.047.

Consider `CC(=O)N1[C@H](CO)[C@@H](c2ccc(C3=CCCCC3)cc2)[C@@H]1CNC(=O)CN(C)C`, for which the viability index was determined as 1.012 ± 0.0042.

Consider `O=C(C1CCCCC1)N1CC(=O)N2[C@H](CO)[C@H](c3ccc(-c4ccccc4F)cc3)[C@@H]2C1`, for which the viability index was 1.04 ± 0.052.

The compound `O=C(c1ccc2c(c1)OCO2)N1C[C@@H]2[C@H](c3ccccc31)[C@@H](CO)N2Cc1cccnc1` yielded a viability index of 1.06 ± 0.087.

As for `C[C@@H]1CN([C@H](C)CO)C(=O)CCCn2nncc2CO[C@H]1CN(C)S(=O)(=O)c1cn(C)cn1`, the viability index is 1.054 ± 0.006.

As for `O=C(NC1Cc2ccccc2C1)[C@H]1N[C@H]2c3cccc(=O)n3C[C@H]2[C@@H]1CO`, the viability index amounted to 1.08 ± 0.054.

`COc1ccccc1-c1ccc2c(c1)O[C@H](CN(C)CC1CCOCC1)[C@H](C)CN([C@@H](C)CO)S2(=O)=O` yielded a viability index of 0.981 ± 0.059.

Consider `O=C(C[C@@H]1CC[C@H](NC(=O)c2cccnc2)[C@H](CO)O1)NCc1ccc(Cl)c(Cl)c1`, for which the viability index was found to be 0.965 ± 0.16.

For the compound `COCC(=O)N1CC[C@@H]2[C@@H](CO)Nc3ccc(-c4ccc(C(=O)N(C)C)cc4)cc3[C@@H]21`, the viability index amounted to 1.05 ± 0.076.

In turn, `C/C=C/c1ccccc1[C@H]1[C@@H](CO)N(C(=O)Nc2ccccc2F)[C@H]1C#N` came in with a viability index of 1.064 ± 0.0072.

As to `Cc1noc(C)c1NC(=O)N1C[C@@H](O)COC[C@H]2O[C@@H](CC(=O)N[C@H]3CCN(Cc4ccccc4)C3)CC[C@@H]21`, the viability index amounted to 1.06 ± 0.044.

Compound `CCS(=O)(=O)N1CCCCN2[C@H](CO)[C@H](c3ccc(-c4ccc(C(=O)N(C)C)cc4)cc3)[C@@H]2C1` yielded a viability index of 1.07 ± 0.16.

Compound `Cc1noc(C)c1NC(=O)N(C)C[C@H]1Oc2ccc(NC(=O)Cc3cn(C)c4ccccc34)cc2CC(=O)N([C@@H](C)CO)C[C@H]1C` returned a viability index of 0.941 ± 0.2.

Compound `COc1cccc(C(=O)N2C[C@H]3[C@@H](c4ccccc42)[C@H](CO)N3C(=O)c2cccc(F)c2)c1` came in with a viability index of 1.01 ± 0.079.

For `O=C(C1CCOCC1)N1CC2(C1)[C@H](c1ccccc1)[C@@H](CO)N2Cc1ccccc1F`, the viability index stood at 1.11 ± 0.044.

As for `CCCC#Cc1ccc([C@@H]2[C@@H](CO)N3CCCCN(CCC)C[C@@H]23)cc1`, the viability index was found to be 0.997 ± 0.043.

`C[C@@H]1CN([C@@H](C)CO)C(=O)c2cc(NS(=O)(=O)c3cn(C)cn3)ccc2O[C@@H]1CN(C)S(=O)(=O)c1ccc(F)cc1` returned a viability index of 0.917 ± 0.059.

Regarding `COc1ccc(S(=O)(=O)Nc2ccc3c(c2)CC(=O)N([C@H](C)CO)C[C@@H](C)[C@@H](CN(C)C(=O)Nc2c(C)noc2C)O3)cc1`, the viability index came out at 1.101 ± 0.0069.

For `CN1C(=O)c2cc(NC(=O)C3CCOCC3)ccc2OC[C@@H]2O[C@@H](CC(=O)NCCc3ccncc3)CC[C@@H]21`, the viability index was 1.11 ± 0.019.

`COc1ccc2c3c([nH]c2c1)[C@H](CO)N(C[C@]31CCN(Cc2cncnc2)CC1)C(=O)CN(C)C`: the viability index is 0.991 ± 0.06.

`CCCNC(=O)N1C[C@]2(CN(CC3CCCCC3)C2)c2c([C@H]1CO)n(C)c1cc(OC)ccc21` registered a viability index of 1.09 ± 0.06.

With `COc1cccc(C#Cc2ccc([C@H]3[C@H]4CN(C(=O)Cc5cccnc5)CC(=O)N4[C@H]3CO)cc2)c1`, the viability index came to 1.057 ± 0.0037.

The compound `C[C@H]1CN([C@@H](C)CO)C(=O)c2cc(-c3ccc(F)cc3)cnc2O[C@H]1CN(C)S(C)(=O)=O` registered a viability index of 0.997 ± 0.068.

Compound `COc1cccc(CNC(=O)C[C@@H]2CC[C@@H]3[C@@H](COc4ccc(NS(=O)(=O)c5ccccc5F)cc4C(=O)N3C)O2)c1` returned a viability index of 1.08 ± 0.036.

`COC(=O)C[C@H]1CC[C@@H]2[C@H](COc3ccc(NS(=O)(=O)c4ccc(C)cc4)cc3C(=O)N2C)O1` gave a viability index of 1.16 ± 0.11.

Regarding `O=C(C[C@@H]1CC[C@H](NC(=O)CC2CC2)[C@@H](CO)O1)NCC(F)(F)F`, the viability index was 0.984 ± 0.13.

Regarding `COc1ccccc1C#Cc1ccc([C@H]2[C@@H](C#N)N(C(=O)C3CCC3)[C@@H]2CO)cc1`, the viability index worked out at 1.05 ± 0.038.

With `COCC(=O)N1[C@@H](CO)[C@@H](c2ccccc2)C12CN(C(=O)c1ccccc1)C2`, the viability index came to 1.09 ± 0.041.

Compound `Cc1cc(C(=O)Nc2ccc3c(c2)C(=O)N(C)[C@@H]2CC[C@@H](CC(=O)O)O[C@H]2CO3)no1` yielded a viability index of 1.02 ± 0.052.

Compound `CCc1cnc(N2[C@@H](C#N)[C@H](c3ccc(C4=CCCCC4)cc3)[C@@H]2CO)s1` had a viability index of 1.08 ± 0.022.

Regarding `C[C@@H]1CN([C@H](C)CO)C(=O)CCCn2nncc2CO[C@H]1CN(C)Cc1ccc(C(=O)Nc2ccccc2N)cc1`, the viability index stood at 1.02 ± 0.13.

For the compound `N#C[C@@H]1[C@H](c2ccccc2)[C@H](CO)N1S(=O)(=O)c1cccc(F)c1`, the viability index was 1.09 ± 0.13.

Consider `COc1ccc2c3c([nH]c2c1)[C@H](CO)N(C[C@]31CCN(Cc2ccccc2Cl)CC1)S(=O)(=O)c1cn(C)cn1`, for which the viability index was 0.982 ± 0.048.

For the compound `O=C1N[C@H](Cc2ccccc2)COCc2cn(nn2)CC[C@H]1Cc1cccc(F)c1`, the viability index came out at 1.04 ± 0.05.

For the compound `C[C@@H]1CN([C@H](C)CO)C(=O)c2cc(NS(=O)(=O)c3ccccc3)ccc2O[C@@H](C)CCCCO[C@H]1CN(C)C(=O)C1CCCCC1`, the viability index was found to be 1.19 ± 0.027.

Regarding `O=C(C1CCOCC1)N1C[C@H]2[C@@H](c3ccccc31)[C@H](CO)N2C(=O)Cc1ccccn1`, the viability index came to 0.989 ± 0.091.

`CC(C)[C@H]1COCc2cn(nn2)CCCCC(=O)N1` registered a viability index of 1.04 ± 0.097.

As for `C/C=C/c1ccc([C@H]2[C@@H](CO)N(C(C)=O)[C@H]2CNC(=O)c2ccccc2)cc1`, the viability index was 1.026 ± 0.0011.

Take `COc1ccc(-c2ccc3c(c2)[C@@H]2[C@@H](CCN2C(=O)c2ccncc2)[C@@H](CO)N3C)cc1`: the viability index amounted to 1.09 ± 0.042.

On to `O=C(C[C@H]1C[C@@H]2c3cc(NS(=O)(=O)c4ccccc4)ccc3O[C@@H]2[C@@H](CO)O1)N1CCOCC1`, for which the viability index stood at 1.09 ± 0.017.

The compound `COc1cccc(NC(=O)C[C@H]2CC[C@H]3[C@@H](COc4ccc(NC(=O)C5CC5)cc4C(=O)N3C)O2)c1` registered a viability index of 1.13 ± 0.018.

As for `CS(=O)(=O)Nc1ccc2c(c1)[C@H]1C[C@@H](CC(=O)NCc3cc(F)ccc3F)O[C@@H](CO)[C@H]1O2`, the viability index worked out at 1.07 ± 0.057.

With `O=C(CC(F)(F)F)N1C[C@H]2[C@@H](c3ccccc31)[C@@H](CO)N2Cc1cccnc1`, the viability index came out at 1.04 ± 0.028.

`COc1ccccc1CN1CC[C@@H]2[C@H](CO)Nc3ccc(-c4cccc(C(=O)N(C)C)c4)cc3[C@@H]21` came in with a viability index of 0.841 ± 0.072.

The compound `CNC[C@H]1Oc2ccc(N)cc2CC(=O)N([C@H](C)CO)C[C@H]1C` had a viability index of 1.01 ± 0.13.

`O=C(C[C@H]1CC[C@H](NS(=O)(=O)c2ccc(F)cc2)[C@@H](CO)O1)N1CCN(c2ccccc2)CC1`: the viability index came out at 1.09 ± 0.13.

`Cc1noc(C)c1S(=O)(=O)N(C)C[C@@H]1Oc2c(NS(=O)(=O)c3cn(C)cn3)cccc2C(=O)N([C@H](C)CO)C[C@@H]1C` yielded a viability index of 1.04 ± 0.038.

In turn, `COc1ccc(-c2cccc(-c3nc(C(=O)N(C)C)cc4c3[C@H](CCO)N([S@@](=O)C(C)(C)C)C4)c2)cc1` registered a viability index of 1.05 ± 0.057.

The compound `O=C(CC(F)(F)F)N1C[C@H]2[C@@H](c3ccccc31)[C@@H](CO)N2CC1CCOCC1` displayed a viability index of 1.07 ± 0.066.

As for `O=C(c1ccccn1)N1CC2(C1)[C@H](c1ccccc1)[C@@H](CO)N2C(=O)C1CCCCC1`, the viability index is 1.02 ± 0.076.

`C/C=C/c1ccc2n(c1=O)C[C@@H]1[C@@H](CO)[C@H](C(=O)NCCCN(C)C)N(Cc3cocn3)[C@H]21.C/C=C\c1ccc2n(c1=O)C[C@@H]1[C@@H](CO)[C@H](C(=O)NCCCN(C)C)N(Cc3cocn3)[C@H]21` came in with a viability index of 1.05 ± 0.054.

Consider `Cn1cnc(S(=O)(=O)N2C[C@H](O)COC[C@@H]3O[C@H](CC(=O)NCc4cccc(F)c4)CC[C@H]32)c1`, for which the viability index was determined as 0.99 ± 0.05.

Regarding `COc1ccc2c3c([C@H](CO)N(C[C@]33CCN(CC3)C(=O)c3cnccn3)C(C)=O)n(C)c2c1`, the viability index is 1.038 ± 0.0037.

In turn, `O=C(C1CCOCC1)N1CC(=O)N2[C@@H](CO)[C@H](c3ccc(/C=C/c4ccccc4)cc3)[C@@H]2C1` yielded a viability index of 0.994 ± 0.088.

As to `COCC(=O)N1[C@H](CO)[C@@H]2c3ccccc3N(C)C[C@@H]21`, the viability index came out at 1.009 ± 0.0084.

For `Cc1noc(C)c1NC(=O)Nc1ccc2c(c1)C(=O)N([C@H](C)CO)C[C@H](C)[C@H](CN(C)S(=O)(=O)c1cccs1)OCCCC[C@H](C)O2`, the viability index is 1.04 ± 0.041.

The compound `CO[C@H]1CN(C)C(=O)c2cc(NC(=O)Nc3cc(F)ccc3F)ccc2OC[C@@H](C)NC[C@H]1C` registered a viability index of 1.09 ± 0.1.

The values above are taken from the supplement of paper PMC4723716.
